Results taken from ChEMBL document CHEMBL1157539, “Thousands of chemical starting points for antimalarial lead identification” (Nature, 2010).
Whole data set: some 13,000 compounds, median “IFI” near 4, cut for the highest 2% near 17. The list shows a part of the results.

Assay: GSK_TCMDC: Inhibition Frequency Index (IFI). The number of non-kinase HTS assays where a compound showed > 50 % inhibition, expressed as a percentage of the number of such assays in which the compound was tested (-0 is zero)
Assay type: functional

Row | Compound | IFI [%]
1 | Cc1cc(OCCCN2CCC(NS(=O)(=O)c3cccc(Br)c3)C2)c2ccccc2n1 (configuration not stated) | 1.72
2 | CCc1c(C)c2ccc3c(c2oc1=O)CN(CCc1ccc(F)cc1)CO3 | -0
3 | c1ccc(-c2ccc(CNCc3ccc(-c4cccc(-c5nc6ccccc6[nH]5)c4)cc3)s2)nc1 | 2.86
4 | CCc1ccc(NC(=O)C=NNC(=N)N)cc1 | -0
5 | N=C(N)Nc1nc(-c2cccc(NC(=O)NCc3ccc(OC(F)(F)F)cc3)c2)cs1 | 3.79
6 | O=C(NC1CCC(N2CCN(c3cccc4[nH]ccc34)CC2)CC1)c1cc2cccnc2[nH]1 (configuration not stated) | 16
7 | O=C(C=Cc1ccc(Cl)c(Cl)c1)NCCCCCN1CCC(CCCNS(=O)(=O)c2cccc(C(F)(F)F)c2)CC1 | 14.9
8 | CCc1cc(NC2CCN(C)CC2)nc(Nc2cccc(OC)c2)n1 | 4.48
9 | CCCNC(=O)c1ccc(N2CCC(c3ccccc3C)CC2)nc1 | 2.13
10 | Cc1[nH]c(C)c(-c2ccc(-c3cc(C(F)(F)F)cc(C(F)(F)F)c3)nc2)c(=O)c1Br | 2.68
11 | Cc1ccc2cc(NC(=O)c3cccc(C(=O)Nc4ccc5nc(C)ccc5c4)n3)ccc2n1 | 0.72
12 | Cc1cnccc1/C=C/c1cccc(OCCN2CCc3ccc(S(C)(=O)=O)cc3CC2)c1 | 0
13 | CC/N=C(/NCCCCCCN/C(=N/CC)NCc1ccccc1)NCc1ccccc1 | 2.84
14 | COc1ccc(-c2ccc(NC(=O)c3cccc(C#N)c3)cc2)cc1CN1CCN(C)CC1 | 4.95
15 | CNC(=O)C(NC(=O)c1ccccc1C(=O)OC)c1ccccc1 (configuration not stated) | 3.65
16 | O=c1c(NCCCN(Cc2ccc(F)cc2)c2ccccn2)c(NCc2cccnc2)c1=O | 0.7
17 | O=C(Cc1ccc(F)cc1)NC1CCN(c2ccnc3cc(Cl)ccc23)C1 (configuration not stated) | 1.54
18 | O=S(=O)(NCCN1CCCC1)c1ccc(-c2ccc(CN3Cc4ccccc4C3)cc2)s1 | 8.33
19 | CC(=O)NC(c1cccs1)c1cc(Cl)c2cccnc2c1O (configuration not stated) | 5.48

Row | Compound | IFI [%]
20 | Cc1cc(NC(=O)c2ccc(S(=O)(=O)N(Cc3ccccc3)C(C)C)cc2)no1 | 0.78
21 | Nc1nccc(-c2ccc3c(/C=C/c4ccccc4)cnc(N)c3c2)n1 | 16.2
22 | CC1(CCCCN2CCC(Oc3ccc(F)cc3F)CC2)C(=O)Nc2ccccc21 (configuration not stated) | 3.62
23 | Cc1cc(N[C@@H](Cc2ccccc2)C(=O)NC2CCCC2)nc(NCCc2ccc(F)cc2)n1 | 4.88
24 | O=C1Nc2ccccc2/C1=N/NC(=S)N1CCOCC1 | 5.52
25 | Nc1ccc2[nH]cc(C3CCN(CC4CCN(C(=O)/C=C/c5ccc(Cl)c(Cl)c5)CC4)CC3)c2n1 | 6.62
26 | Cn1nc(-c2cccc(CNCCc3cccs3)c2)c2cnc(NC3CCCC3)nc21 | 7.69
27 | CS(=O)(=O)c1ccc(CCNCc2ccc(-c3ccc(CN(C(=O)C4CCCC4)C4CCN(Cc5ccccc5)CC4)cc3)nc2)cc1 | 4.93
28 | Cc1ccc(NC(=O)c2ccc(-c3cc4cc(Cl)c(Cl)cc4[nH]3)cc2)cc1OCCN1CCCC1 | 2.9
29 | O=C(NCc1ccc2c(c1)OCO2)c1nn(CCN2CCC(N3CCCC3)CC2)cc1-c1ccc(Cl)c(Cl)c1 | 4.73
30 | CNCCNCc1cccc(-c2ccc(-c3nc4cccc(C)c4[nH]3)s2)c1 | 4
31 | CCC1CCCCN1S(=O)(=O)c1ccc(OC)c(N2CCN(C(=O)C(Cl)(Cl)Cl)CC2)c1 (configuration not stated) | 4.58
32 | CC(=O)Nc1ccc(C(=O)Nc2cccc(-c3cccc(-c4nc5ccccc5[nH]4)c3)c2)cn1 | 2.7
33 | Cc1nc(-c2cccc(Nc3nccc(NCC(O)c4ccccc4)n3)c2)cs1 (configuration not stated) | 24.1
34 | O=C(c1cnn(-c2ccccc2)c1C(F)(F)F)N1CCN(c2ccnc3cc(Cl)ccc23)CC1 | 10.1
35 | O=C(CNC(=O)c1ccc(O)cc1)Nc1ccc(-c2cccc(-c3nc4cc(C(F)(F)F)ccc4[nH]3)c2)cc1 | 6.36
36 | CC(C)CCN1CCC(Oc2ccc(NC(=O)c3ccsc3)cc2Cl)CC1 | 4.92
37 | CC1(C)NC(N)=NC(=N)N1OCCCc1cccc(C(F)(F)F)c1 | 6.38
38 | Cc1ccc(Nc2nc(N/N=C/c3ccccc3[N+](=O)[O-])nc(Nc3ccc([N+](=O)[O-])cc3)n2)cc1C | 2.92

Row | Compound | IFI [%]
39 | N#Cc1cccc(NC(=O)Nc2cccc(-c3cccc(-c4nc5ccccc5[nH]4)c3)c2)c1 | 6
40 | Cc1cccc2nc(-c3ccc(-c4cccc(NC(=O)NCc5ccccc5)c4)cc3)[nH]c12 | 4.04
41 | CS(=O)(=O)CCNCc1cccc(-c2cc3c(Nc4ccc5c(cnn5Cc5ccccc5)c4)ncnc3s2)c1 | 2.61
42 | CN1CCN(Cc2ccc(-c3ccc4ncnc(Nc5ccc(OCc6ccccc6)cc5)c4c3)o2)CC1 | 6.98
43 | Cc1cc(CNCCCCCCNCc2ccc(-c3ccccc3)cc2)ccc1O | 5.11
44 | NCc1ccc(-c2ccc3c(N)nccc3c2)cc1 | 3.85
45 | COc1ccc2nccc([C@@H](O)CN3CCC(NCCOc4ccc(F)cc4Cl)CC3)c2c1 | 1.49
46 | COc1ccc2nccc([C@@H](O)CN3CCC(NC(=O)c4cc5ccccc5[nH]4)CC3)c2c1 | 2.21
47 | Nc1ccc(-c2nc3cc(C4=N[C@H]5CCCC[C@H]5N4)ccc3o2)cc1[N+](=O)[O-] | 1.41
48 | COc1ccc2nc3cc(Cl)ccc3c(NCCN3CCN(C)CC3)c2c1 | 4.9
49 | CC(C)(C)c1ccc(CN2CCCCC(NC(=O)c3cc(-c4cccc(F)c4)cs3)C2)cc1 (configuration not stated) | 3.64
50 | CC(C)(C)N1CCC(N(Cc2ccc(-c3ccc(C(F)(F)F)cc3)cc2)C(=O)Cn2c(CCc3cccc(F)c3F)nc(=O)c3cccnc32)CC1 | 16.7
51 | COc1ccc2nccc(N3CCC(CCNCc4ccc5c(n4)NC(=O)CO5)CC3)c2c1 | 5.84
52 | CC(C)Cn1cc(C2CCN(CCN3CCC(CNC(=O)c4ccc(NC(=O)c5ccc(Cl)cc5)cc4)CC3)CC2)c2ccccc21 | 8.04
53 | COc1ccc(CN2CCC(NCc3cccc(-n4ccnc4)c3)CC2)cc1 | 0.67
54 | C=CCOC(=O)O[C@@H]1[C@@H](OC(=O)OCC=C)[C@@H](OC)O[C@H](COC(c2ccccc2)(c2ccccc2)c2ccccc2)[C@H]1OC(=O)OCC=C | 0.76
55 | OC1(c2ccc(Br)cc2)CCN(C2CCN(Cc3ccccc3)CC2)CC1 | 1.42
56 | N=C(N)NN=C1C=Cc2cccc3cccc1c23 | 8.57
57 | CN(C)CCOc1cc(NC(=O)Nc2cccc3c(-c4ccncc4)cccc23)ccc1I | 8.33
